# According to PubChem BioAssay AID485281 (National Center for Advancing Translational Sciences (NCATS), 2010):
# “And” between values parts separate entries of the source, which are not always exact repeats. Equal values may be shown once. The whole screen tested about 350,000 compounds, of which about 260 (0.074%) were called active. Inconclusive means that the source gave no clear call. Such entries were picked first, then a sample of the others. Calls follow the shape of the dose curve; as a rule, active = well fitted inhibition curve with a large enough effect; inconclusive = small, poorly fitted or top-dose-only effect; inactive = no such curve, though single readings can be large or run the other way. Potencies beside an inconclusive call are fits to weak or partial responses and may not hold up.
# Biological target: Ferritin light chain (Equus caballus) (UniProt P02791)
# Assay: qHTS Assay for Identification of Novel General Anesthetics; also: nearly all actives have a fitted effect of over 20% in size
# Settings: apoferritin/1-aminoanthracene competitive binding, fluorescence; activity change, negative = displacement: at 77.5 µM (top of the series)
# Outline: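 Steps: apoferritin (10 uM) was premixed with half-saturated 1-AMA in PBS, compounds were pin-transferred, plates stood 10 min at room temperature, fluorescence was read at 380/535 nm, and curves were fitted with a Hill equation.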
# % is scaled to controls: 0 for no effect and ±100 for the full control effect; potency is read from the fitted curve at half-maximal effect; tags tell the direction and shape of the fitted curve.
# Chain of UniProt P02791 (P02791 whole entry, looked up): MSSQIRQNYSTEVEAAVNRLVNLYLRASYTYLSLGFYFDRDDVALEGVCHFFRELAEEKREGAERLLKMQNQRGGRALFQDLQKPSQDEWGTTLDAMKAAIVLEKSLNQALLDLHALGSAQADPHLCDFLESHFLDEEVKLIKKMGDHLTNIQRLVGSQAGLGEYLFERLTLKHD
SMILES,Potency,"activity change, negative = displacement"
Cc1cccc(Cc2c(C)nc3nc(SCc4ccccc4F)nn3c2C)c1,"inconclusive: 2.82 µM [inhibitor, partial curve]",
Cc1ccc(C(=S)N2CCN(Cc3ccccc3)CC2)cc1,,inactive: -20.4%
Cc1ccc(N(Cc2ccccc2F)S(C)(=O)=O)cc1C,"inconclusive: 39.8 µM [inhibitor, partial curve]",
CN(C(=O)COC(=O)COc1ccc(Cl)cc1)C1CCCCC1,"inconclusive: 14.1 µM [inhibitor, partial curve]",
CCCCn1c(N2CCC(Cc3ccccc3)CC2)nc2c1c(=O)[nH]c(=O)n2C,"inconclusive: 35.5 µM [inhibitor, single point]",
CC(C)c1cc(-c2nc(-c3ccc(Br)cc3)no2)n[nH]1,"inconclusive: 50.1 µM [inhibitor, single point]",
Cc1cc(C)nc(NS(=O)(=O)c2ccc(NC(=O)CN3C(=O)S/C(=C\c4ccccc4)C3=O)cc2)n1,"inconclusive: 11.2 µM [inhibitor, partial curve]",
C/C(=N\NC(=O)CCC(=O)Nc1ccc(C)c(C)c1)C1CC1,"inconclusive: 14.1 µM [inhibitor, partial curve]",
CCCN(Cc1cccs1)C(=O)Nc1ccc(Br)cc1F,"inconclusive: 39.8 µM [inhibitor, partial curve]",
CC(C)N1CCc2c(sc(NC(=O)c3cc4cc([N+](=O)[O-])ccc4s3)c2C(N)=O)C1,"inconclusive: 35.5 µM [inhibitor, partial curve]",
CCn1c(SCC(=O)N/N=C/C=C/c2ccccc2[N+](=O)[O-])nnc1-c1ccccc1,"inconclusive: 31.6 µM [inhibitor, partial curve]",
CC(/C=N/NC(=O)CSc1nnc(SCc2ccccc2)s1)=C\c1ccco1,"inconclusive: 14.1 µM [inhibitor, partial curve]",
COc1ccc(-c2cc(C)no2)cc1S(=O)(=O)NC1CCC(C)CC1 (centres undefined),,inactive: 0.759%
CNC(=O)c1c(NC(=O)c2ccc(S(=O)(=O)N3CCCC3)cc2)sc2c1CCN(C(C)C)C2,"inconclusive: 7.08 µM [inhibitor, full curve, poor fit]",
CCCCN(CC)C(=O)c1ccc2c(c1)OCO2,"inconclusive: 25.1 µM [inhibitor, partial curve]",
COc1ccc(-c2cc(OC)c3c(C)oc(C)c3c(=O)c2)cc1OC,"inconclusive: 44.7 µM [inhibitor, single point]",
Cc1cc(C)n(-c2ccc(S(=O)(=O)N3CCCC3)cc2[N+](=O)[O-])n1,,inactive: -8.05%
COC(=O)c1c(NC(NC(=O)C(C)(C)C)C(Cl)(Cl)Cl)sc2c1CCC2 (centres undefined),"inconclusive: 10 µM [inhibitor, partial curve]",
COc1cccc2sc(NN)nc12,"inconclusive: 31.6 µM [inhibitor, single point]",
CCOc1ccc2nc(N(CCN(CC)CC)C(=O)/C=C/c3cccs3)sc2c1,"inconclusive: 14.1 µM [inhibitor, partial curve]",
CN(C)S(=O)(=O)c1ccc(NC(=O)COc2ncnc3c2cnn3-c2ccccc2)cc1,"inconclusive: 31.6 µM [inhibitor, single point]",
Nc1nc(F)nc2c1ncn2[C@@H]1O[C@H](CO)[C@@H](O)[C@@H]1O,,inactive: 3.93%

SMILES,Potency,"activity change, negative = displacement"
O=C(COC(=O)CN1C(=O)C2CC=CCC2C1=O)Nc1cc(C(F)(F)F)ccc1N1CCOCC1 (centres undefined),"inconclusive: 50.1 µM [inhibitor, single point]",
Cc1c(-c2ccccc2)nc2ccccc2c1C(=O)OCC(=O)Nc1ncc(C(F)(F)F)cc1Cl,"inconclusive: 14.1 µM [inhibitor, partial curve]",
CC1CCCCN1C(=O)CSc1nnc(-c2ccc(Cl)s2)o1 (centres undefined),"inconclusive: 39.8 µM [inhibitor, single point]",
CCCCCCCCCCCCCCCCn1cc[n+](C)c1,"inconclusive: 35.5 µM [inhibitor, partial curve] and inconclusive: 50.1 µM [inhibitor, single point]",
COc1ccc(N2CCN(C(=O)C(C)n3c(=O)cc(C(F)(F)F)c4c(C)nn(C)c43)CC2)cc1 (centres undefined),"inconclusive: 28.2 µM [inhibitor, partial curve]",
Cc1ccc2c(cnn2C(=O)CCC(=O)N2CCCCC2)c1,"inconclusive: 25.1 µM [inhibitor, partial curve]",
COc1ccccc1-c1ccc(SCc2ccccc2)nn1,"inconclusive: 31.6 µM [inhibitor, partial curve]",
S=C(Nc1cccc(Br)c1)c1ccccc1,"inconclusive: 35.5 µM [inhibitor, partial curve]",
Cc1ccc(C(=O)CSc2nnc(-c3c[nH]c4ccccc34)o2)cc1,"inconclusive: 31.6 µM [inhibitor, single point]",
CC(C)C(=O)NC(c1cccc([N+](=O)[O-])c1)c1ccc2cccnc2c1O (centres undefined),,inactive: -14.6%
O=C(Cc1ccccc1[N+](=O)[O-])NCCCc1ccccc1,"inconclusive: 35.5 µM [inhibitor, single point]",
CC(C)CCNC(=O)c1c2c(nc3ccccc13)C(=O)N(C1CCCCC1)C2,"inconclusive: 28.2 µM [inhibitor, partial curve]",
O=C(COC(=O)/C=C/c1cccs1)NC1CCCCC1,"inconclusive: 31.6 µM [inhibitor, partial curve]",
OCc1cccc(Nc2ncnc3sc4c(c23)CCCCC4)c1,"inconclusive: 39.8 µM [inhibitor, single point]",
Cc1ccccc1Cn1c(=O)n(C)c(=O)c2sccc21,"inconclusive: 39.8 µM [inhibitor, single point]",
O=C(c1ccc(-c2ccccc2)c(F)c1)C1CCCN(C(=O)c2cncs2)C1 (centres undefined),"inconclusive: 28.2 µM [inhibitor, partial curve]",
Oc1ccc(Cc2ncc(C(F)(F)F)cc2Cl)cc1,"inconclusive: 10 µM [inhibitor, partial curve]",
CCOC(=O)C1=C(C)N(c2ccccc2)C(=O)/C1=C\c1ccc(O)c(OC)c1,"inconclusive: 35.5 µM [inhibitor, partial curve]",
CCOC(=O)CCCN1C(=O)CCn2nc(-c3cn(C)c4ccccc34)cc21,"inconclusive: 25.1 µM [inhibitor, partial curve]",
CN(Cc1ccc2nsnc2c1)Cc1nc(Cc2cccc(F)c2)no1,"inconclusive: 28.2 µM [inhibitor, partial curve]",
OCC1(Cc2ccc(F)cc2)CCCN(Cc2ccc(F)cc2Cl)C1 (centres undefined),"inconclusive: 12.6 µM [inhibitor, partial curve]",
COc1cccc(NC(=O)Cn2nnc(C(=O)Nc3ccccc3)c2N)c1,"inconclusive: 3.98 µM [inhibitor, full curve]",

SMILES,Potency,"activity change, negative = displacement"
CCOC(=O)C1CCCN(C(=O)c2cc3nc(-c4cccc(OC)c4)cc(C(F)(F)F)n3n2)C1 (centres undefined),"inconclusive: 50.1 µM [inhibitor, single point]",
Cc1cc(N2CCCCCC2)nc2ccccc12,"inconclusive: 15.8 µM [inhibitor, partial curve]",
COC(=O)c1ccc(-c2sc3nc(N4CCOCC4)c4c(c3c2N)CCCC4)o1,,inactive: -10.2%
O=C(COc1ccc2oc(-c3ccccc3)cc(=O)c2c1)NCc1ccco1,"inconclusive: 35.5 µM [inhibitor, partial curve]",
CCc1ccc(C2CC(c3ccccc3)Nc3nc(N)nn32)cc1 (centres undefined),,inactive: -2.42%
CCCCCn1c(=O)[nH]c2cc(C(=O)N3CCN(c4cccc(OC)c4)CC3)ccc2c1=O,"inconclusive: 17.8 µM [inhibitor, partial curve]",
Cc1cc(C)c(-n2nnnc2SCC(=O)c2cc3ccccc3o2)c(C)c1,"inconclusive: 6.31 µM [inhibitor, full curve]",
C=CCOC(=O)C1=C(C)N=c2s/c(=C3\C(=O)N(CC(=O)O)c4ccccc43)c(=O)n2C1c1ccc(OC)cc1 (centres undefined),,inactive: -14.7%
O=C(NC(=S)NC1C2CC3CC(C2)CC1C3)c1ccccc1 (centres undefined),"inconclusive: 44.7 µM [inhibitor, single point]",
COc1ccc(NC(C)C(=O)N/N=C/c2ccccc2OCc2ccc(Br)cc2)cc1 (centres undefined),"inconclusive: 2.82 µM [inhibitor, full curve, poor fit]",
Cc1ccccc1N/C(SCc1ccc(Cl)cc1)=C(/C#N)C(N)=O,"inconclusive: 39.8 µM [inhibitor, single point]",
Nc1cc([N+](=O)[O-])ccc1Nc1ccccc1,active: 15.8 µM,
COc1ccc(OCC(=O)N/N=C(\C)CC(=O)Nc2cccc([N+](=O)[O-])c2)cc1,"inconclusive: 25.1 µM [inhibitor, partial curve]",
O=c1c2c3c(sc2ncn1-n1cccc1)CCCCC3,"inconclusive: 4.47 µM [inhibitor, full curve]",
O=C(Cc1ccc(Cl)cc1)N/N=C1\CCCc2ccccc21,"inconclusive: 44.7 µM [inhibitor, single point]",
CCC1CCCCN1C(=O)CSc1nc2ccsc2c(=O)n1Cc1ccccc1 (centres undefined),"inconclusive: 7.08 µM [inhibitor, full curve]",
CCCCCCCNC(=O)C1(CC2CC(c3ccc(Cl)cc3)=NO2)CCN(C(=O)c2cc(OCC)c(OCC)c(OCC)c2)CC1 (centres undefined),,inactive: -5.44%
CC(=O)c1ccc(NC(=O)CSc2nccn2CCc2ccccc2)cc1,"inconclusive: 11.2 µM [inhibitor, partial curve]",
Cc1ccccc1N1CCN(Cc2cc3c(cc2[N+](=O)[O-])OCO3)CC1,,inactive: -12%
Cc1nnc(SCC(=O)NC(C)(C)C)n1NCc1cccc(Br)c1,"inconclusive: 17.8 µM [inhibitor, partial curve]",
